Some of the results follow.
Tested on: PF3D7_0420300 AP2 domain 1 (GST-tagged)
Assay: gcPBM binding intensity (ln(normalized median fluorescence intensity)); higher = stronger DNA binding
Summary of the method: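 In this array assay, P. falciparum DNA-binding domains with a GST tag, expressed in E. coli, were applied for 1 h to primer-extended double-stranded 36-bp intergenic genomic probes and negative controls on an Agilent 4 × 180k array. Bound protein was visualised with Alexa488 anti-GST antibody at 488 nm. Binding intensity is the highest Masliner-normalised natural-log median intensity across replicate spots of either probe orientation.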

Sequence | gcPBM binding intensity (ln)
TTTTTTTCTTAAAGATGTACTTTTTAAAAACAATCT [XGTACX_site986] | 8.79
GATGAGGACAGACACACACACATAAGTTGATACATA [CACACA_site7580] | 9.89
GTTTTTACTTTTATCTGTACATAATACTACCAATAT [XGTACX_site5414] | 9.47
CTGTACACTTAAACGGTGCAAAAAGAAAAAAAAGAA | 9.21
GTTGGGTAATTCGTAACACACATAAAATATATATAA [CACACA_site3986] | 9.42
CACGCGCACCAACACACACACACACCCATATATATA [CACACA_site2204] | 10.3
TGCCTATGACATGAATGTACATTAAAATTAAATAAA [XGTACX_site7126] | 8.9
CACACTTGCTCCTGTTGTACATAACCATAAGCAACA [XGTACX_site2102] | 9.17
TGAATATAACAAATATGTACTTAAAATTGTTATATT [XGTACX_site5679] | 9.12
ATTATTAAAAATATGGGTACATATTATTGTTATATA [XGTACX_site1958] | 9.08
AAAAAAAAAAAAAAATGTACATGACATGACATGACA [XGTACX_site4020] | 8.91
TTATATTTTACAAATGCACACATAATTTTTTTTTTT [CACACA_site8890] | 9.28
AAACTTTACATTACTTGTACATATATTCTATATAAT [XGTACX_site8640] | 9.46
TAAAGAAATAAATACATACACACATATATATATATA [CACACA_site3363] | 9.46
TTTGATAATAAGATATAATACTTAAATATATATATA [GTGCAC_negctrl_site339] | 8.85
AAATATATATTCAAAAGTACACAATTTGTTAATAAT [XGTACX_site8917] | 9.25
TATTTTACGCGGTTTATAATGACATGTTCTATATTT [CACACA_negctrl_site1184] | 9.43
TAAATATATAAATACACACACACCAAAGCAATAGAT [CACACA_site5605] | 10.2
TCCATATGCATGTATTGTACTGTAATATATTAAAAA [XGTACX_site472] | 9.09
AAAAAAAAAAAAGAAACACACACATATATATATATA [CACACA_site8525] | 9.69
AGCAGTCGACAGGACAGTACACAGTAGCCAGGAAAT [XGTACX_site4929] | 9.32
TAATTAAATAAAAAAAAATATATATATATATATATA [XGTACX_negctrl_site616] | 9.01
TTTTTTAAAAATAACTGTACAGAGGCTGTTAGGATA [XGTACX_site2521] | 9.19

Sequence | gcPBM binding intensity (ln)
AGACAATATTAATAAGGTACACATATATATTAAAAA [XGTACX_site6709] | 9.42
AGCCCTTTTTTTTTTTAGAATATTGCATAATTATAT [XGTACX_negctrl_site546] | 9.49
TATATAAATATATCCACACACATACCTATATTAATA [CACACA_site6184] | 9.71
GTATTGTATGGATGGGGTACTATATATATATATTTT [XGTACX_site1694] | 9.72
TAAGGGAGAGATTTGTATCATAAGCAACTTTCAAAA [CACACA_negctrl_site1436] | 8.99
TTATAATTAAATTTCACACAGTTCATAACATAATTA [CACACA_site5501] | 8.99
TTTATATGTTTTAAGTGTACACATATAATGTATTTT [XGTACX_site3069] | 9.33
ACTTTCAACATGAAGTTGCACTTTTTTTTTTTTCTT | 9.47
TATTGAATAAAATGCACACGCATGCGTTATTTATTA [CACACA_site3479] | 9.17
AAACGTATTCTATAAAGTACATTATTATAGTAGACC [XGTACX_site8068] | 9.28
TAAAAAAATTATATTTGTACATATTAATATAGCCTT [XGTACX_site4833] | 8.96
ATATGTCCATATAGTAAATGTTACATTTTAAAGCGC [XGTACX_negctrl_site168] | 9.28
AAAATATTTATTTTTTGTACACATAAAAACGCACTT [XGTACX_site4132] | 9.14
CATATTTTGTGAAAAAGTACATATATATATATATAT [XGTACX_site6295] | 9.04
ATTCTTAAAAAATAAGTGCAAAATAATTAAATAAAT | 9.2
AGAATGGTTTATAAAGGTACGTAATTTTTAATTTTA [XGTACX_site383] | 9.06
TTATATAAAGAATGTACACACAGAAATGCACAGACA [CACACA_site5288] | 9.81
AATATGTACAGACATACACACATATTTATATTTATA [CACACA_site6694] | 9.47
GCTTATATTAATAAGGTGCTTTTTATTTCGTGTGTA [GTGCAC_site9649] | 9.65
TCATAGTATAAACACACACACACACCCATATATATA [CACACA_site8512] | 10.3
TAGTATTAAATATATACACACATATATACCTATAGA [CACACA_site5219] | 9.58
AAAATGTAATATTGGGTGCACAATAAGTTTGATGTC | 9.57
TGAAAAGATAAAAAAAGTACACACACACATATATAT [XGTACX_site6504] | 10.2

Sequence | gcPBM binding intensity (ln)
TTATAAATAATGAGAAACATTAAATTTAATCATAAA [CACACA_negctrl_site523] | 8.93
TTTAGTGTTATAAAAAGTACATAATAATTCCTTTTC [XGTACX_site3208] | 8.95
AAAAATTCAATAGGACGTACTAAAACATTCATTAAT [XGTACX_site1712] | 9.34
TACTATATATATATATATATATATATATATATTTAT [GTGCAC_negctrl_site593] | 8.93
AGCCCAAAAAAGTAGACATGCAAAAACTTTACAACT [TGCATGCA_site550] | 9.17
AAAAAAAAAAAGAAGGGTACATATTATATATAATAT [XGTACX_site6204] | 9.43
TATATATAAACATAATGTACATATAATAAGTAATAT [XGTACX_site497] | 9.45
CACGTGAAAATACAAGCATGCAAGCTTTTTTTTTCT [TGCATGCA_site642] | 9.01
AATGAGAATTTTATTACACACTTTAATATATTTTCA [CACACA_site784] | 9.28
AATTTTCAATAGTATACACACAATTCTATAAATATA [CACACA_site6650] | 9.29
AATTTTTTTATAGCACGTACAAAAATACAAAATACA [XGTACX_site1569] | 9.13
AAAAAAATAAATAAATGTACACATATATATATATAT [XGTACX_site4350] | 9.08
ATCATTTATATTTTATGTACATATATAATTATATTT [XGTACX_site2129] | 9.52
AGTGAAATTTTAGTCACACAGTTTTATCTTTAAGAA [CACACA_site5202] | 9.01
TTATGTCTAATGAAATGTACATGAATAAATTAAAGT [XGTACX_site8138] | 9.42
TAGAGGAATATAATATGTACATAATATAATGTATAT [XGTACX_site2838] | 9.36
AATTATATAAGCCACGCATGTGTGCATAAAAATACA [TGCATGCA_site114] | 9.38
ATATATATATATATTGCACACATATAAATATATATA [CACACA_site8167] | 9.26
GAAAAATTTAATTATTGTACGTTTCATCTATATTTA [XGTACX_site414] | 9.33
TTTTTGTTTTTTTTGTGTACTTATCAAATATATATA [XGTACX_site7273] | 9.47
CAAAAAAAATTATACACACACACACCCATATATATA [CACACA_site1044] | 10.2
TACTATATATTATATAGTACATAAGATATACAACAT [XGTACX_site2929] | 9.32
AAGAAAATTAACCCATGTACTTATGTAGATAGCAAG [XGTACX_site1049] | 9.48

Sequence | gcPBM binding intensity (ln)
TAAAACTTAATATAAACACACAAAAATTAATAAATA [CACACA_site4370] | 9.6
CAATATTATAGATATACACACATAATGTGTAAAAAC [CACACA_site6631] | 9.76
TCTTGATCTTATATATATCTACAATATTTTATACAT [TGCATGCA_negctrl_site569] | 9.48
ATTACAAATATAATATGTACTTAAATATAATTAAAA [XGTACX_site7038] | 9.02
ATTACTAAAACAAAATGTACATATGATTTAAGAAAA [XGTACX_site5992] | 9.05
TTTTTTTTTTAGAGTACACACTTTTTTACATTTATG [CACACA_site5990] | 9.33
TAACTTCAAAAATCTTGTACATAAATATATAAAACA [XGTACX_site8574] | 9.1
AATTTTGTCCTATGTTGTACTATTTTGCTCTATTTT [XGTACX_site7139] | 9.84
ATAAATAGTATTATATGTACACATAATATTTATAAA [XGTACX_site4751] | 9.21
TTTCTCTCTTATAAAATACACACGAACAATCATATT [CACACA_site509] | 9.29
AAAAATGGTGTTAACACACACATATATATATATATA [CACACA_site571] | 9.43
TTAATATAGGGAAAAAAAAGAAAATCGAAAATGTGT [CACACA_negctrl_site834] | 9.57
CACATTTTTTAAATATTTTTCTACTCCATAATGTTT [CACACA_negctrl_site557] | 9.3
TATAATTATGATGATAGTACGTATGAGTTCAAAACA [XGTACX_site4211] | 9.3
ATAGTTACACGCCAAAAAAAAAAAAAAAAAAAAAAA [CACACA_negctrl_site1133] | 8.54
TTAAAATGATTGTTACTTTTTTTTCCGTTTTCTTAA [CACACA_negctrl_site1195] | 9.19
CTTAAAAAAATATATTGTACATATATATATACAACT [XGTACX_site1281] | 9.12
TATATTCCCATATAACGTACATATGAGACACCAACT [XGTACX_site8099] | 9.48
GTTTATATATTATAAAGTACATATGAATTTAATAAT [XGTACX_site3601] | 9.01
AAAAAATAAATAAACATAAATAAATAAATAAATATA [XGTACX_negctrl_site340] | 9.41

Source: the supplement of paper PMC11417369
